Data reported in the RNAGym collection of RNA variant scans (doi:10.7554/elife.90254).
The source gives no read counts; variants with many changes may rest on few reads.

B1: LINE1-mini (parent)
chain: GGCAGAGCUCAACACAGCGUGGCAAAGUGGCUGUGGCUAGACUGCC

Variants of: B1
Assay: self-cleavage, relative activity (ratio to wild type); higher = more cleavage; in vitro, sequencing; the parent is a self-cleaving ribozyme

| Variant | self-cleavage |
| --- | --- |
| GGCAGAGCCUAACACAGCGUGGAAAAGUGGCUGUGGCUAGACUGCC | 0.02 |
| GGCAGAGCCUAACACAGCGUGGCAAAGUGGCUGUGGCUAAACUGCC | 0.05 |
| GGCAGAGCCCAACAAAGUGUGGCAAAGUGCCUGUGGCUAGACUGCC | 0.01 |
| GGCAGAGCCCAACAAAGCGUGGUAAAGUAGCUGUGGCUAGACUGCC | 0.02 |
| GGCAGAGCCCAAAAUAGCGUGGCAAAGUCGCUAGGGCUAGACUGCC | 0 |
| GGCAGAGCCUAACACAGCGAGGCAAAGUGGCUGUGGCUAGACUGCC | 0.01 |
| GGCAGAGCCCAAAACACCGUGGCAAAGUGGCUUUGGCUAGACUGCC | 0 |
| GGCAGAGCCGAACACAGCUUGGCCAACUGGCUGUGGCUACACGGAC | 0 |
| GGCAGAGCCCAACAGAGCGUGUCAAAGUGGCCGUGGCUAGACAGAU | 0.02 |
| GGCAGAGCCAAACACAGCGUGGCAAAGUGGCUGUGGCUACACUGCC | 0.03 |
| GGCAGAGCCCAACAUAGCGUGUCAAAGUCGCUGUGGCUAGACUGCC | 0.04 |
| GGCAGAGCCCAACAAAGCGUGGAAAAGUUGCUGUGGCAAGACUGCC | 0.02 |
| GGCAGAGCCGACCUCAGCGUGGCAAGGUGGCUGUGGCUAGAUUGCC | 0.01 |
| GGCAGAGCCACACCCAGCGUGGCACAGUGGCUGAGACUAGACUGCC | 0.01 |
| GGCAGAGCCCAACACAACAUGGCAAAGUGGGUGUGGCUAGAGUGCC | 0.03 |
| GGCAGAGCCCAAGACAUCGUGGCAAAGUGGCUGUGGCUCGACUGCC | 0.01 |
| GGCAGAGCCAAACACAACGUGGCAAAGUGGCUGUUGCUAGACUGCC | 0.02 |
| GGCAGAGCCCAACACAGCGUGGCAAAGUGGCUGUGGCUAGACUGUA | 0.05 |
| GGCAGAGCCCAAUAGAGCGUGGCAAAGUGGCUGUGGCUAGACUGCC | 0.04 |

| Variant | self-cleavage |
| --- | --- |
| GGCAGAGCCUAACACAGCGUGGCAAAGUGGCUGUGGCUUGACUGCC | 0.04 |
| GGCAGAGCCCAAGACAACGUGGCAAAGUGGCCGUGGCUAGACUGCC | 0 |
| GGCAGAGCCCAACACAACGUGGCAAAGUGGGCGUGGCUAGAGCGCC | 0.02 |
| GGCAGAGCCCAACACAGUGUGGCAAAGUGGCUGUGGCUAGACUGAC | 0.03 |
| GGCAGAGCCCAACAUAGCGUGGCAAAAUGGCUGUGGCUAGACUGCG | 0.03 |
| GGCAGAGCCCAAUACAGCGUAGCAAAGUGGCUUUGUCUUGACUGCC | 0.01 |
| GGCAGAGCCCAACACAGCGUGGCAAAGUGGCUGUGGCUAGAUUGUC | 0 |
| GGCAGAGCCCAACACAGCGUGGCAAAGUGGAUGUGGCUAGACGGCC | 0 |
| GGCAGAGCCCAAUACAGCGUGGCAAAGUGGCCGUGACUAGACUGCC | 0.06 |
| GGCAGAGCCCAACACAGCGUGGCAAGGUGGCUGUCGCUAGACUGCC | 0.02 |
| GGCAGAGCCCAACACGGCGUUGCAAAGUGACUGUGGCUAGACUGCC | 0.02 |
| GGCAGAGCCGAACACAUCGUGGCAAAGUGGCCGUGGAUAGAUUGGC | 0 |
| GGCAGAGCCCAACACCGCUUGGCAAAGUGGCUGUGGCUAGACUGCC | 0.04 |
| GGCAGAGCCAAACACAGCGUGGCAGAGUGGCUGUGGCUAGACUGCC | 0.01 |
| GGCAGAGCCCAACAAAGCAUGGCAAAGUGGCUGUGGCUGGACUGCC | 0.01 |
| GGCAGAGCCAAACAUAGCGUGGCAAGGUGGCUGUGGCUUGACUGCC | 0.01 |
| GGCAGAGCCCAACACAGCGUGGCAAAGUGGCUGUGGCUAGAGUCCC | 0.01 |
| GGCAGAGCCGAACACAGCGUGGAAAACGGGCUGUGGCUAGACUGCC | 0.01 |
| GGCAGAGCCCAACACAGCGUGGCAAAGUGGCUGUGGCUAGAGUGCA | 0.01 |

| Variant | self-cleavage |
| --- | --- |
| GGCAGAGCCUAACACAGCGUGGCAAAGUGGCUGUGGCUAGACUGAC | 0.03 |
| GGCAGAGCCCAACAUAUCGUGGUAAAGUGGCUGUGGCUAGACUGCC | 0.09 |
| GGCAGAGCCCAACACAGGGUGGCAAAGUGGCUGCGGCUACACUACA | 0.01 |
| GGCAGAGCCACACACAGCGUGGCAAAGUGGGUGUUGCUAGACUGCC | 0 |
| GGCAGAGCCCAACACAGCGUGGAAUAGUUGCUGUGGCUAGACCGCC | 0 |
| GGCAGAGCCCAACACUGAGUGCCAAAGUGGCUGUGGCUUGACUGCC | 0 |
| GGCAGAGCCCAACACAGCGUGGCGAAGCGGCUGUGGCUAGACUGCC | 0.07 |
| GGCAGAGCCCAACACAACCUGCCAAAGUGGCUGUGUCUAGUCUGCC | 0 |
| GGCAGAGCCCAACACAGCGUGGCAAUGUGGCUGUAGCUAGACUGCC | 0.03 |
| GGCAGAGCCAAACACAGCGUGGCAAAUGGGCUGCGGCUAGACUGCC | 0.09 |
| GGCAGAGCCCAAAACAGCGUGGCAAAGUGGGUGUGGCUAUACUGCC | 0 |
| GGCAGAGCCCAACACCGCGCGCCAAAGUGUCUGUGGCUAGACUGCC | 0.01 |
| GGCAGAGCCCAACACAGCGUGGCAGAGUGACUGUGGCUACACUGCC | 0.01 |
| GGCAGAGCCCAACAGAGCGUGCCAAAGUGGCUGUGGCUCGAGUGCC | 0.01 |
| GGCAGAGCCCAACACAGCGUGGUAAAGUUGCUGUGGCUAGACUGCC | 0.03 |
| GGCAGAGCCCAACACCGCGUUGCAAAGUGGCUGUGGCUAUACUGCC | 0 |
| GGCAGAGCCCAACACAGCGUGGCAAAGUGGGUAUGGCUAGACUGCC | 0.03 |
| GGCAGAGCCCAAAAAAGCGUGGGAAAGUGGCUGUGGCUAGUCUGCC | 0 |
